# Test results reported in the supplement of paper PMC11181314.
# The list shows a part of the results. Single values of this set are uncertain.
# Tested on: U2OS
# Experiment: Cell Painting induction (percent of morphological features significantly changed vs DMSO); higher = stronger morphological change
# Details: 10 µM; 20 h; run: confirmation repeat
# Protocol: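 Cell Painting assay in U2OS cells: compounds at 10 µM for 20 h, six dyes, 579 robust CellProfiler features as Z-scores vs DMSO median (MAD). Induction is the % of significantly changed features (active if ≥5%); relative cell count is in % of DMSO. The primary run holds DCM compounds preselected for induction ≥10%; the confirmation repeat defines active compounds (370 of 549). Replicate agreement is low, attributed to precipitation.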
# 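Further: stains mark DNA, RNA and nucleoli, ER, actin, Golgi, plasma membrane and mitochondria, read by high-content imaging, with DMSO controls at matching solvent concentration.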
row,Compound,Cell Painting induction
1,CCN1CCN(C(c2cccs2)C(C)NC(=O)c2cccc(OC)c2)CC1 (stereo not given),active: 13.1%
2,COc1ccc(-n2nc(C(=O)NCCCN3CCCC3=O)c3c4ccccc4n(C)c3c2=O)cc1Cl,inactive: 0.2%
3,COc1ccc(NC(=S)N/N=C/c2cccn2Cc2ccccc2F)cc1,active: 22.1%
4,CC1CCc2c(sc(NC(=O)C3c4ccccc4Oc4ccccc43)c2C(N)=O)C1 (stereo not given),active: 12.6%
5,COc1cccc(/C=C2\N=C(c3c(-c4ccccc4)noc3C)OC2=O)c1,inactive: 3.5%
6,COc1ccc(OC)c(NC(=O)Cn2cc(C(=O)c3ccccc3)c(=O)c3cc(C)ccc32)c1,active: 5.4%
7,CCCN(CCC)CCCNC(=O)C1c2cc(OC)c(OC)cc2C(=O)N(C)C1c1cccs1 (stereo not given),active: 16.8%
8,CCN(CC)CCNC(=O)c1cn(CC)c2ccc(S(=O)(=O)N(C)C3CCCCC3)cc2c1=O,inactive: 3.6%
9,O=S(=O)(NC1CCCCC1N1CCN(c2ccc(F)cc2)CC1)c1ccccc1 (stereo not given),active: 18.5%
10,CCOc1ccc(-n2c(SCC(=O)Nc3ccccc3CC)nc3nnc(C)c-3c2N)cc1,inactive: 0%
11,CCOc1cc(CNCCCN2CCOCC2)cc(Cl)c1OCC(=O)NC(C)(C)C,active: 33.7%
12,O=C(CCc1nnc2ccc(N3CCCCC3)nn12)NCC1CCN(Cc2ccc(F)cc2)CC1,active: 30.2%
13,O=C(NCCCN(Cc1ccco1)C1CCCC1)c1noc2c1COc1ccccc1-2,active: 24.2%
14,Cc1noc(C)c1S(=O)(=O)N(CC(=O)NCc1ccccc1)c1ccc(C(C)C)cc1,active: 17.1%
15,COc1ccc(-n2ncc(C(=O)Nc3ccc(OC(F)(F)F)cc3)c2C2CCNCC2)cc1,active: 67%
16,O=C(N/N=C/c1cccnc1)c1ccccc1OCc1cccc(Br)c1,active: 19%
17,Cc1cccc(-n2c(O)nc3c(C(N)=O)nc(-c4ccc(C(C)C)cc4)nc32)c1,active: 50.9%
18,Cc1ccc2nc(N3CCC(C(=O)NC4CCCCC4)CC3)sc2c1,active: 10.4%
19,CCC(=O)N1CCc2cc(S(=O)(=O)N3CCN(c4cccc(C)c4)C(C)C3)ccc21 (stereo not given),inactive: 1.9%
20,CC(=O)c1c(N2CCN(c3ccc(F)cc3)CC2)nc(=S)n(Cc2ccccc2)c1C,inactive: 1.9%

# Same assay, conditions: 10 µM; 20 h; run: primary screen (compounds selected for induction >=10%)
row,Compound,Cell Painting induction
1,CCN1CCN(C(c2cccs2)C(C)NC(=O)c2cccc(OC)c2)CC1 (stereo not given),26.4%
2,COc1ccc(-n2nc(C(=O)NCCCN3CCCC3=O)c3c4ccccc4n(C)c3c2=O)cc1Cl,11.6%
3,COc1ccc(NC(=S)N/N=C/c2cccn2Cc2ccccc2F)cc1,12.8%
4,CC1CCc2c(sc(NC(=O)C3c4ccccc4Oc4ccccc43)c2C(N)=O)C1 (stereo not given),21.4%
5,COc1cccc(/C=C2\N=C(c3c(-c4ccccc4)noc3C)OC2=O)c1,12.1%
6,COc1ccc(OC)c(NC(=O)Cn2cc(C(=O)c3ccccc3)c(=O)c3cc(C)ccc32)c1,42.5%
7,CCCN(CCC)CCCNC(=O)C1c2cc(OC)c(OC)cc2C(=O)N(C)C1c1cccs1 (stereo not given),14.3%
8,CCN(CC)CCNC(=O)c1cn(CC)c2ccc(S(=O)(=O)N(C)C3CCCCC3)cc2c1=O,16.4%
9,O=S(=O)(NC1CCCCC1N1CCN(c2ccc(F)cc2)CC1)c1ccccc1 (stereo not given),18.7%
10,CCOc1ccc(-n2c(SCC(=O)Nc3ccccc3CC)nc3nnc(C)c-3c2N)cc1,20.4%
11,CCOc1cc(CNCCCN2CCOCC2)cc(Cl)c1OCC(=O)NC(C)(C)C,37.7%
12,O=C(CCc1nnc2ccc(N3CCCCC3)nn12)NCC1CCN(Cc2ccc(F)cc2)CC1,20.7%
13,O=C(NCCCN(Cc1ccco1)C1CCCC1)c1noc2c1COc1ccccc1-2,26.9%
14,Cc1noc(C)c1S(=O)(=O)N(CC(=O)NCc1ccccc1)c1ccc(C(C)C)cc1,20%
15,COc1ccc(-n2ncc(C(=O)Nc3ccc(OC(F)(F)F)cc3)c2C2CCNCC2)cc1,49.2%
16,O=C(N/N=C/c1cccnc1)c1ccccc1OCc1cccc(Br)c1,15.7%
17,Cc1cccc(-n2c(O)nc3c(C(N)=O)nc(-c4ccc(C(C)C)cc4)nc32)c1,39.2%
18,Cc1ccc2nc(N3CCC(C(=O)NC4CCCCC4)CC3)sc2c1,35.1%
19,CCC(=O)N1CCc2cc(S(=O)(=O)N3CCN(c4cccc(C)c4)C(C)C3)ccc21 (stereo not given),10.7%
20,CC(=O)c1c(N2CCN(c3ccc(F)cc3)CC2)nc(=S)n(Cc2ccccc2)c1C,10.4%
